Reference: PubChem BioAssay AID1478 (National Center for Advancing Translational Sciences (NCATS), 2009)
About 860 (0.43%) of roughly 200,000 compounds were called active. This list was built around the results that the source calls inconclusive (neither active nor inactive); the mix of calls is not that of the screen. Calls follow the shape of the dose curve; as a rule, active = well fitted inhibition curve with a large enough effect; inconclusive = small, poorly fitted or top-dose-only effect; inactive = flat fitted curve, though single readings scatter. Where the call is inconclusive, the potency comes from a doubtful curve fit.

target: Cruzipain (Trypanosoma cruzi) (UniProt P25779); test: qHTS Assay for Promiscuous and Specific Inhibitors of Cruzain (with detergent); settings: purified cruzain, Z-FR-AMC fluorescence, 0.01% Triton; also: nearly all actives have a fitted effect of over 40% in size;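 as to max response, negative = inhibition: plate controls were neutral wells for no effect and buffer without enzyme for full effect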
Sequence of UniProt P25779 (P25779 whole entry, looked up): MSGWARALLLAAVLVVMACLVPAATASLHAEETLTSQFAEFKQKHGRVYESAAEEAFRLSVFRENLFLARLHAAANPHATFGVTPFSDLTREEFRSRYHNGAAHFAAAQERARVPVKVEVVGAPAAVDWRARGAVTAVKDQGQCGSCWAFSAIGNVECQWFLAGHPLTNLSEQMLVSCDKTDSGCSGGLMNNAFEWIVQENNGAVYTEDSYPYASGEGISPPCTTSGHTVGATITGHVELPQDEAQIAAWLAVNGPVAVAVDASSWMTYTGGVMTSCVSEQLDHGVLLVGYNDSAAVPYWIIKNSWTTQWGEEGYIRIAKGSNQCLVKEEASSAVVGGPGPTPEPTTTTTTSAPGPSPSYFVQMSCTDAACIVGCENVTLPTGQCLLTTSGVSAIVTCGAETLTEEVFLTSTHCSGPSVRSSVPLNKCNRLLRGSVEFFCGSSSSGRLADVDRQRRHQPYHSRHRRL
Procedure, shortened: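 In this qHTS format, compounds are incubated with 1.5 nM cruzain for 15 min at room temperature before 2 uM Z-FR-AMC is added. Release of AMC is followed at 360/450 nm, and progress is taken as the 60 s fluorescence difference.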
Potency is read from the fitted curve at half-maximal effect; tags tell the direction and shape of the fitted curve.

SMILES | Potency | max response, negative = inhibition
CC1CN(S(=O)(=O)c2cccc(-c3cn4cccnc4n3)c2)CC(C)O1 (stereo not drawn) | inconclusive: 22.4 µM [inhibitor, single point] | 
CCCc1cc(=O)oc2c(C)c(O)c(CN3CCCCC3)cc12 | inconclusive: 28.2 µM [inhibitor, single point] | 
O=C(O)C1CCN(c2nc(-c3ccccc3)nc3c2oc2ccccc23)CC1 | inconclusive: 31.6 µM [inhibitor, single point] | 
Cc1ccc(SCC(=O)NCc2ccco2)cc1 | inconclusive: 25.1 µM [inhibitor, single point] | 
CC(C)(Sc1ccc(CCN(CCCCC2CCCCC2)C(=O)NC2CCCCC2)cc1)C(=O)O | inconclusive: 15.8 µM [inhibitor, partial curve] | 
Cn1c(CCNC(=O)c2ccc(F)cc2)nc2ccccc21 | active: 11.2 µM | 
CCc1ccc(-c2cc(C(=O)Nc3ccc(S(=O)(=O)NC(C)=O)cc3)c3ccccc3n2)cc1 | inconclusive: 25.1 µM [inhibitor, single point] | 
CCSC1=NSC2=NC(=O)/C(=C\c3coc4ccccc4c3=O)C(=N)N12 | inconclusive: 25.1 µM [inhibitor, single point] | 
O=C(CCN1CCCCCC1)c1ccccc1 | inconclusive: 25.1 µM [inhibitor, single point] | 
Cc1nn(-c2ccccc2)c(N2CCCC2)c1/C=C1\N=C(c2ccccc2)OC1=O | active: 1.58 µM | 
c1ccc2sc(NC3=NCN(Cc4ccc5c(c4)OCO5)CN3)nc2c1 | inconclusive: 20 µM [inhibitor, partial curve, poor fit] | 
Cc1cc(C)cc(NC(=O)C2CCCN(S(=O)(=O)c3cccc4nsnc34)C2)c1 (stereo not drawn) |  | inactive: -2.45%
Cc1cc(=O)oc2c(CN3CCCCC3)c(O)c(Cl)cc12 | inconclusive: 35.5 µM [inhibitor, single point] | 
Cc1cc(=O)n(C(C)C(=O)N2CCCc3ccccc32)c2c1c(C)nn2-c1ccccc1 (stereo not drawn) |  | inactive: 3.91%
N#Cc1nc(-c2ccc(OCc3ccccc3)cc2)oc1NCCCn1ccnc1 | inconclusive: 31.6 µM [inhibitor, single point] | 
CCCC[C@@H](C=O)NC(=O)[C@H](CC(C)C)NC(=O)[C@H](CC(C)C)NC(C)=O | inconclusive: 0.0032 µM [inhibitor, full curve, poor fit] | 
Cc1cccn2c(=O)c3cc(C(=O)NCc4cccnc4)c(=N)n(C(C)C)c3nc12 | inconclusive: 35.5 µM [inhibitor, single point] | 
Cc1ccccc1-n1nc2c(c1NC(=O)/C=C\c1ccc3c(c1)OCO3)CSC2 | inconclusive: 39.8 µM [inhibitor, single point] | 
COCc1cc(C)nc2sc3c(c12)NC(c1ccccc1C(=O)O)N(c1cccc(C(F)(F)F)c1)C3=O (stereo not drawn) | inconclusive: 28.2 µM [inhibitor, single point] | 
NC(=S)N/N=C/c1ccc(-c2cc(Cl)ccc2Cl)o1 | active: 0.708 µM | 
O=C(Nc1ccccc1C(=O)NC1CCCCC1)c1ccco1 |  | inactive: 0.683%
O=[N+]([O-])c1cc(Br)c(O)c(/C=N/Nc2nnnn2-c2cccc3ccccc23)c1 | inconclusive: 15.8 µM [inhibitor, partial curve] | 

SMILES | Potency | max response, negative = inhibition
O=C(CCN1CCC(c2ccccc2)C1)c1ccc2c(c1)OCCO2 (stereo not drawn) | inconclusive: 25.1 µM [inhibitor, partial curve] | 
Cc1ccc(CNc2oc(-c3ccco3)nc2S(=O)(=O)c2ccccc2)cc1 | inconclusive: 31.6 µM [inhibitor, single point] | 
Cc1cc(C)cc(OCC(=O)Nc2ccc(N3CCCC3)cc2)c1 | inconclusive: 35.5 µM [inhibitor, single point] | 
CCOCCCn1c(=NC(C)=O)c(C(=O)OCC)cc2c(=O)n3ccccc3nc21 | inconclusive: 28.2 µM [inhibitor, single point] | 
CCN1/C(=C/C=C/C=C/c2sc3ccccc3[n+]2CC)Sc2ccccc21 | inconclusive: 31.6 µM [inhibitor, single point] | 
CC(/C=C/c1ccc(O)cc1)=N/O | active: 22.4 µM | 
Cc1ccc(Cn2nnc3c(=O)n(Cc4ccccc4C)cnc32)cc1 |  | inactive: 3.81%
CCCCn1c(NC(=O)c2ccccc2Cl)c(C#N)c2nc3ccccc3nc21 | inconclusive: 28.2 µM [inhibitor, single point] | 
Cc1c(C(=O)NCc2ccoc2)oc2ccc3c(c12)C(=O)CC(C)(C)O3 | inconclusive: 28.2 µM [inhibitor, single point] | 
O=C(Oc1oc(-c2ccco2)nc1C=Nc1ccccc1)c1ccco1 | active: 14.1 µM | 
COc1ccccc1N=Cc1nc(-c2ccccc2)oc1OC(C)=O | active: 25.1 µM | 
O=C(Nc1cc(C(F)(F)F)ccc1N1CCOCC1)C1Cc2ccccc2CN1C(=O)c1ccco1 (stereo not drawn) | inconclusive: 20 µM [inhibitor, single point] | 
CC(NC(=O)OCc1ccccc1)C(=O)OCN1C(=O)c2ccccc2C1=O (stereo not drawn) | inconclusive: 22.4 µM [inhibitor, partial curve] | 
O=C(CC1N=C2c3ccccc3N=C(SCc3ccccc3Cl)N2C1=O)NC1CCCCC1 (stereo not drawn) |  | inactive: 0.704%
Cc1c(CNCCCc2ccccc2)c(C(=O)O)c(C)n1Cc1ccc(Cl)cc1 |  | inactive: -2.79%
CCCCCNCCCCC |  | inactive: 2.21%
O=C(COC(=O)CSc1cccc2cccc(Cl)c12)Nc1ncc(C(F)(F)F)cc1Cl | inconclusive: 8.91 µM [inhibitor, partial curve] | 
CC(=O)N1CCN(C(=S)c2ccc(-c3ccc(Cl)cc3)o2)CC1 | active: 8.91 µM | 
CCOC(=O)C1CCN(C(=O)c2ccc3c(c2)sc2nc(-c4ccccc4)cn23)CC1 |  | inactive: -1.07%
Cc1ccc(Cl)cc1N1CCN(C(=O)c2sc3nc4n(c(=O)c3c2C)CCC4)CC1 |  | inactive: -2.07%
Cc1ccc2nc(SC(C)C(=O)NCc3ccc4c(c3)OCO4)[nH]c2c1 (stereo not drawn) | inconclusive: 28.2 µM [inhibitor, single point] | 
